Data as given in the supplement of paper PMC4604168 (melanoma cell lines).
This is one part of the list. Repeats are few or missing, and single values can be far off.

Key:
Test in all cases: cell count relative to DMSO control; melanoma cells; higher = more viable cells
Details in all cases: library dose: low library concentration; 72 h
MZ2-MEL = tested on: MZ2-MEL
MeWo = tested on: MeWo
RPMI7951 = tested on: RPMI7951
RVH-421 = tested on: RVH-421
SkMel28 = tested on: SkMel28
SkMel2 = tested on: SkMel2
SkMel30 = tested on: SkMel30
UACC62 = tested on: UACC62
WM115 = tested on: WM115
WM1716 = tested on: WM1716
WM1745 = tested on: WM1745
WM3526 = tested on: WM3526
WM3619 = tested on: WM3619
WM451Lu = tested on: WM451Lu
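Note: cell number obtained by counting DAPI-stained nuclei in high-throughput microscope images with image analysis software, screen run in 1,536-well plates.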

SMILES | cell count (MZ2-MEL) [%] | cell count (MeWo) [%] | cell count (RPMI7951) [%] | cell count (RVH-421) [%] | cell count (SkMel28) [%] | cell count (SkMel2) [%] | cell count (SkMel30) [%] | cell count (UACC62) [%] | cell count (WM115) [%] | cell count (WM1716) [%] | cell count (WM1745) [%] | cell count (WM3526) [%] | cell count (WM3619) [%] | cell count (WM451Lu) [%]
CCCS(=O)(=O)Nc1ccc(F)c(C(=O)c2c[nH]c3ncc(Cl)cc23)c1F + Cn1c(Nc2ccc(C(F)(F)F)cc2)nc2cc(Oc3ccnc(-c4ncc(C(F)(F)F)[nH]4)c3)ccc21 [CHIR265] (first compound 0.08 µM, partner dose 0.08 µM) | 83.5 | 83.8 | 67 | 64.2 | 57.1 | 84.3 | 83.5 | 47.3 | 64.9 | 96.4 | 72.7 | 51.2 | 87.7 | 90.1
NC1(c2ccc(-c3nc4ccn5c(=O)[nH]nc5c4cc3-c3ccccc3)cc2)CCC1 + Nc1cccc2c1CN(C1CCC(=O)NC1=O)C2=O [lenalidomide] (first compound 0.4 µM, partner dose 1 µM) | 113 | 101 | 118 | 111 | 85.6 | 101 | 110 | 79.4 | 95.5 | 103 | 90.8 | 91.8 | 90.3 | 113
CCCS(=O)(=O)Nc1ccc(F)c(C(=O)c2c[nH]c3ncc(Cl)cc23)c1F + Cn1nnc2c(C(N)=O)ncn2c1=O [temozolomide] (first compound 0.08 µM, partner dose 2 µM) | 90.2 | 102 | 122 | 85.2 | 80.4 | 102 | 68 | 63.7 | 108 | 96.4 | 97.1 | 81.2 | 89.5 | 108
CS(=O)(=O)c1ccc(C(=O)Nc2ccc(Cl)c(-c3ccccn3)c2)c(Cl)c1 [vismodegib] + Nc1ccn([C@@H]2O[C@H](CO)[C@@H](O)C2(F)F)c(=O)n1 [gemcitabine] (first compound 1 µM, partner dose 0.0004 µM) | 105 | 101 | 123 | 118 | 114 | 114 | 110 | 107 | 103 | 124 | 94.7 | 123 | 80.9 | 109
CS(=O)(=O)c1ccc(C(=O)Nc2ccc(Cl)c(-c3ccccn3)c2)c(Cl)c1 [vismodegib] + C=C(c1ccc(C(=O)O)cc1)c1cc2c(cc1C)C(C)(C)CCC2(C)C [Bexarotene] (first compound 1 µM, partner dose 2 µM) | 99.7 | 96.9 | 82.6 | 111 | 77 | 92.7 | 92.3 | 87.4 | 98.3 | 76.6 | 101 | 88.6 | 92.7 | 80.3
C=C(c1ccc(C(=O)O)cc1)c1cc2c(cc1C)C(C)(C)CCC2(C)C [Bexarotene] + CCCS(=O)(=O)Nc1ccc(F)c(C(=O)c2c[nH]c3ncc(Cl)cc23)c1F [PLX4720] (first compound 2 µM, partner dose 0.08 µM) | 86.3 | 73 | 82.4 | 83.2 | 59.3 | 103 | 111 | 47.2 | 89 | 86.9 | 95.3 | 77.2 | 79.7 | 108
CCCS(=O)(=O)Nc1ccc(F)c(C(=O)c2c[nH]c3ncc(Cl)cc23)c1F + COCC[n+]1c2c(n(Cc3cnccn3)c1C)C(=O)c1ccccc1C2=O [YM155] (first compound 0.08 µM, partner dose 0.0004 µM) | 65.9 | 86.7 | 105 | 88.1 | 74.5 | 86.4 | 84.8 | 48.1 | 104 | 121 | 78.2 | 65.5 | 76.3 | 73.3
CN(c1ncccc1CNc1nc(Nc2ccc3c(c2)CC(=O)N3)ncc1C(F)(F)F)S(C)(=O)=O + Nc1cccc2c1CN(C1CCC(=O)NC1=O)C2=O [lenalidomide] (first compound 0.08 µM, partner dose 1 µM) | 96 | 102 | 67.8 | 96.7 | 99.6 | 87.8 | 83 | 82.6 | 85.2 | 91.3 | 67.9 | 89.6 | 101 | 86
NC1(c2ccc(-c3nc4ccn5c(=O)[nH]nc5c4cc3-c3ccccc3)cc2)CCC1 + CC(=O)c1c(C)c2cnc(Nc3ccc(N4CCNCC4)cn3)nc2n(C2CCCC2)c1=O [palbociclib] (first compound 0.4 µM, partner dose 0.04 µM) | 1.01 | 61.8 | 71.6 | 66.3 | 59.9 | 71.8 | 54.7 | 70.8 | 63.3 | 57.9 | 75.2 | 56 | 67.7 | 77.4
